Reference: the supplement of paper PMC4604168 (melanoma cell lines)
The list shows a part of the results. Most values come without repeats; read them as rough.

Assays:
Assay in all cases: cell count relative to DMSO control; melanoma cells; higher = more viable cells
Conditions in all cases: library dose: standard library concentration; 72 h; first compound 2 µM
[1] = test system: G361
[2] = test system: IPC-298
[3] = test system: IST-MEL1
[4] = test system: LB2518-MEL
[5] = test system: LOXIMVI
[6] = test system: MEL-HO
[7] = test system: MZ2-MEL
[8] = test system: MeWo
[9] = test system: RPMI7951
[10] = test system: RVH-421
[11] = test system: SkMel28
[12] = test system: SkMel2
[13] = test system: SkMel30
[14] = test system: SkMel5
[15] = test system: UACC257
[16] = test system: UACC62
[17] = test system: WM115
[18] = test system: WM1716
[19] = test system: WM3526
[20] = test system: WM1745
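Note: cells treated in 1,536-well plates, then fixed and DAPI-stained, with nuclei counted from automated high-throughput microscope images.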

Compound	cell count [1]	cell count [2]	cell count [3]	cell count [4]	cell count [5]	cell count [6]	cell count [7]	cell count [8]	cell count [9]	cell count [10]	cell count [11]	cell count [12]	cell count [13]	cell count [14]	cell count [15]	cell count [16]	cell count [17]	cell count [18]	cell count [19]	cell count [20]
CCCCCCCCCCCCCCCCCCOP(=O)([O-])OC1CC[N+](C)(C)CC1 [Perifosine] + COc1ccc2c(c1)CCC1C2CCC2(C)C(NCCCCCCN3C(=O)C=CC3=O)CCC12 [U73122] (partner dose 2 µM)	82.5%	85.5%	86.3%	92.5%	153%	92.3%	96.6%	71%	10.9%	105%	53.7%	85.3%	83.2%	121%	113%	79.3%	84.4%	79%	80.6%	
C[C@@H](N)c1ccc(C(=O)Nc2ccnc3[nH]ccc23)cc1 + Cn1nnc2c(C(N)=O)ncn2c1=O [temozolomide] (partner dose 10 µM)	85.4%	100%	75.6%		81.9%	74.8%		84.6%	67.3%	71.1%	32.7%	104%	68.1%	68.2%	73.2%	59.5%	86.6%	32.9%	103%	59.1%
CCCCCCCCCCCCCCCCCCOP(=O)([O-])OC1CC[N+](C)(C)CC1 [Perifosine] + Cn1cncc1[C@@](N)(c1ccc(Cl)cc1)c1ccc2c(c1)c(-c1cccc(Cl)c1)cc(=O)n2C [tipifarnib] (partner dose 0.05 µM)	76.8%	85.4%	94.2%		82%	90.3%		99.3%	27.4%	101%	42.7%	68%	93.3%	89.5%	99.1%	93.1%	58.3%	50.1%	78.1%	87.3%
C[C@@H](N)c1ccc(C(=O)Nc2ccnc3[nH]ccc23)cc1 + c1cc(-c2cnn3cc(-c4ccc(OCCN5CCCCC5)cc4)cnc23)ccn1 [Dorsomorphin] (partner dose 2 µM)	63.2%	89.4%	90.6%	65.5%	96.8%	86.4%	47.2%	47.3%	40.1%	78.2%	64.1%	65.1%	109%	58.5%	67.2%	72.9%	75.5%	33.7%	86.5%	
CCCCCCCCCCCCCCCCCCOP(=O)([O-])OC1CC[N+](C)(C)CC1 [Perifosine] + COc1ccc(-c2ccc3c(N4CCOCC4)nc(N4C[C@@H](C)O[C@@H](C)C4)nc3n2)cc1CO [KU0063794] (partner dose 0.1 µM)	84.8%	86.8%	86.4%	93.9%	77.5%	77.2%	102%	94.1%	40.5%	99.2%	76.8%	94.6%	103%	82.4%	97%	84.3%	100%	85.6%	91.5%	
CCCCCCCCCCCCCCCCCCOP(=O)([O-])OC1CC[N+](C)(C)CC1 [Perifosine] + O=S(=O)(c1ccccc1)N(CC(F)(F)F)c1ccc(C(O)(C(F)(F)F)C(F)(F)F)cc1 [T0901317] (partner dose 7 µM)	77.7%	80.3%	74.8%	77.9%	88.2%	72.6%	94.3%	82.5%	45.8%	80.6%	67.4%	80.4%	90.4%	62.6%	67.5%	52.2%	74.7%	79.8%	90.4%	
Cn1sc(=O)n(Cc2ccccc2)c1=O + CCc1ccc(CCOc2ccc(CC3SC(=O)NC3=O)cc2)nc1 [pioglitazone] (partner dose 10 µM)	107%	112%	107%	104%	100%	93.9%	128%	84.9%	86.8%	86.9%	79.9%	111%	106%	97.3%	82.1%	106%	87.3%	96.8%	95.6%	
Cn1sc(=O)n(Cc2ccccc2)c1=O + C=CCNC1=C2C[C@@H](C)C[C@H](OC)[C@H](O)[C@@H](C)/C=C(\C)[C@H](OC(N)=O)[C@@H](OC)/C=C\C=C(/C)C(=O)NC(=CC1=O)C2=O [Tanespimycin] (partner dose 0.01 µM)	57.5%	83%	69.9%		125%	79.4%		67.9%	23.5%	104%	48%	77.2%	79.2%	47.5%	89.5%	45.4%	25.2%	76.1%	74.1%	55.3%
C[C@@H](N)c1ccc(C(=O)Nc2ccnc3[nH]ccc23)cc1 + CCc1ccc(CCOc2ccc(CC3SC(=O)NC3=O)cc2)nc1 [pioglitazone] (partner dose 10 µM)	85.6%	89%	91.2%	99.5%	85.4%	76.1%	61.1%	69.7%	49.4%	59.6%	66.3%	94.5%	91.5%	59.3%	79.9%	68.2%	92%	63.9%	91.2%	
